Data on 92 compounds can be found in PubChem BioAssay AID360 (National Center for Advancing Translational Sciences (NCATS), 2006).

Molecules are shown by their SMILES. The campaign covered roughly 48,000 compounds. About 550 (1.1%) were called active. Inconclusive results (about 4%) are left out. Rule as the data show it: active = potency below about 15 µM; inconclusive = mostly about 16 µM to 33 µM; inactive = weaker than that. The list shows a part of the results.
Potency is read from the fitted curve at half-maximal effect.

Chain of UniProt P04062 (P04062 whole entry, looked up): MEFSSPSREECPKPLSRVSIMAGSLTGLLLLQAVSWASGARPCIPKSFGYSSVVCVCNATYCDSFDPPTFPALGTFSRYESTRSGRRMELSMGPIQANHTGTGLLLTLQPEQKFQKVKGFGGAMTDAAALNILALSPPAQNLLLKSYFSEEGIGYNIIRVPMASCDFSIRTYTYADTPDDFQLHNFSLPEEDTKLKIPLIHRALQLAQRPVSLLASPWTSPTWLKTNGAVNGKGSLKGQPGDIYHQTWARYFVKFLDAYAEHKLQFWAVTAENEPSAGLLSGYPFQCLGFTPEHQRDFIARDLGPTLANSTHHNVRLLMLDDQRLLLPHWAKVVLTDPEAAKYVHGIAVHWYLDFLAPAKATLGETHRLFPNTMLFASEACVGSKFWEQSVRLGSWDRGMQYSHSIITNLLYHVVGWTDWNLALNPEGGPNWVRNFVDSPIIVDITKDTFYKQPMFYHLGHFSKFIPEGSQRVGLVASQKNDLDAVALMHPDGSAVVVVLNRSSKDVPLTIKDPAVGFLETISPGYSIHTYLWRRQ

The target in the experiment is Lysosomal acid glucosylceramidase (Homo sapiens) (UniProt P04062). Briefly: Glucocerebrosidase.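 Also: the screen sought inhibitors.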 The conditions noted are these: purified enzyme, resorufin glucoside fluorescence (screen aimed at inhibitors), 20 min. Put shortly:
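Normal human glucocerebrosidase (0.2 nM final) was assayed with resorufin β-D-glucopyranoside (30 uM final) in 50mM citric acid/KH2PO4, 10mM sodium taurocholate, 0.01% tween-20, pH 5.9. Compounds were titrated; fluorescence (Ex 548, Em 600) read after 20 min at RT.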
`O=C(NCC1CCCO1)c1cccc(-n2cnnn2)c1` (configuration not stated): the Potency was inactive: > 76.9 µM.

Regarding `CCC(=O)N1CCc2cc(S(=O)(=O)NCCCN3CCN(Cc4ccccc4)CC3)ccc21`, the Potency is inactive: > 76.9 µM.

Turning to `Cn1c(=O)cc(OCC(=O)NCCCN2CCN(c3ccccc3F)CC2)c2ccccc21`, the Potency is inactive: > 76.9 µM.

In the case of `Cn1c(C(=O)OCC(=O)NCC2CCCO2)cc2sccc21` (configuration not stated), the Potency was inactive: > 76.9 µM.

For the compound `Cc1[nH]c2ccccc2c1C(=O)CSCC(=O)O`, the Potency is inactive: > 76.9 µM.

Consider `CCOC(=O)c1sc(NC(=O)CSc2nnc(C(C)C)n2CC)nc1C`, for which the Potency is inactive: > 76.9 µM.

Regarding `CS(=O)(=O)N(CC(=O)N1CCOCC1)Cc1ccccc1`, the Potency was inactive: > 76.9 µM.

Consider `O=C(Nc1ccccc1Oc1ccccc1)c1cnccn1`, for which the Potency is inactive: > 76.9 µM.

Turning to `CCCN(Cc1cc2cc(OC)ccc2[nH]c1=O)C(=O)c1ccncc1`, the Potency is inactive: > 76.9 µM.

Regarding `CCN(CC)CCCN1C(=O)C(O)=C(C(=O)c2ccco2)C1c1cc(OC)ccc1OC` (configuration not stated), the Potency was inactive: > 76.9 µM.

With `Cc1csc(NC(=O)c2ccccc2C(=O)O)n1`, the Potency was inactive: > 76.9 µM.

Consider `COC(=O)c1ccc(NC(=O)Cn2nnc3ccccc32)cc1`, for which the Potency is inactive: > 76.9 µM.

In the case of `CCC(C)NC(=O)c1cnn2c(C)c3c(nc12)CCCC3` (configuration not stated), the Potency is inactive: > 76.9 µM.

Consider `O=C(CC1COc2ccccc2O1)NCc1ccccc1` (configuration not stated), for which the Potency is inactive: > 76.9 µM.

`COc1ccc(CC(=O)NC(CC(=O)O)c2ccc(OC)cc2)cc1` (configuration not stated): the Potency is inactive: > 76.9 µM.

In the case of `COc1ccccc1-n1c(C)nc(=O)c(-c2ccccc2)c1C`, the Potency was inactive: > 76.9 µM.

For the compound `CCCC(=O)Nc1ccc(-c2nc3cc(C)ccc3o2)cc1`, the Potency was inactive: > 76.9 µM.

Consider `Cc1ccc(Nc2ncccc2C(=O)O)cc1C`, for which the Potency is inactive: > 76.9 µM.

Consider `Cc1csc(NC(=O)CSc2nc(C)cs2)n1`, for which the Potency is inactive: > 76.9 µM.

Regarding `Cn1c(=O)n(C/C=C/c2ccccc2)c(=O)c2c1nc1n2CCCN1Cc1ccccc1`, the Potency is inactive: > 76.9 µM.

As to `COc1cccc(C2=NOC(C(=O)NCCN3CCOCC3)C2)c1` (configuration not stated), the Potency is inactive: > 76.9 µM.

On to `O=C(Nc1c(-c2ccccc2)nc2c(Br)cc(Br)cn12)c1ccco1`, for which the Potency was inactive: > 76.9 µM.

As to `Cc1ccc2cc(CN(C(=O)c3ccncc3)C(C)C)c(=O)[nH]c2c1`, the Potency is inactive: > 76.9 µM.

Regarding `CC(=O)c1cnc2nc(C(F)(F)F)nn2c1C`, the Potency was inactive: > 76.9 µM.

`COc1cc2c(cc1NC(=O)C1CCCO1)oc1ccccc12` (configuration not stated): the Potency is inactive: > 76.9 µM.

Turning to `COCCCNC(=O)c1oc2ccc(S(=O)(=O)N(C)C3CCCCC3)cc2c1C`, the Potency was inactive: > 76.9 µM.

On to `CCCc1cc(C(N)=O)c(NC(=O)c2cc(C)on2)s1`, for which the Potency was inactive: > 76.9 µM.

`COc1ccc(CNC(=O)c2cccc3c2C(=O)N(Cc2cccnc2)C3)cc1`: the Potency was inactive: > 76.9 µM.

`CCCCC(C(=O)NCCC(C)C)N(CCCN1CCOCC1)C(=O)c1snc(C(N)=O)c1N` (configuration not stated): the Potency entry is “inactive”.

As for `CCCC(c1nnnn1Cc1ccc(F)cc1)N1CCN(C2CCCCC2)CC1` (configuration not stated), the Potency was inactive: > 76.9 µM.

As for `COc1cccc(-n2nnnc2SCC(=O)c2cc(OC)ccc2OC)c1`, the Potency was inactive: > 76.9 µM.

As for `Cc1cc(NS(=O)(=O)c2ccc(NC(=O)c3ccco3)cc2)no1`, the Potency was inactive: > 76.9 µM.

For the compound `CS(=O)(=O)NCc1csc(-c2ccccc2)n1`, the Potency was inactive: > 76.9 µM.

For the compound `CSc1cccc(-n2c(C)cc(C(N)=O)c2C)c1`, the Potency was inactive: > 76.9 µM.

`c1ccc(C(c2nnnn2C2CCCC2)N2CCCCCC2)nc1` (configuration not stated): the Potency was inactive: > 76.9 µM.

Consider `O=S(=O)(NCC(c1cccnc1)N1CCN(c2ccccc2)CC1)c1cccs1` (configuration not stated), for which the Potency entry is “inactive”.

On to `COc1ccc(-c2cc(O)cc(O)c2)cc1`, for which the Potency was inactive: > 76.9 µM.

For the compound `Cc1ccc(N(C(=O)CC2NC(=O)NC2=O)C2(C(=O)NC3CCCC3)CCCCC2)cc1` (configuration not stated), the Potency is inactive: > 76.9 µM.

Consider `O=C(Cn1[nH]c(=O)c2ccccc2c1=O)Nc1ccc2c(c1)CCC2`, for which the Potency was inactive: > 76.9 µM.

On to `CN1CCN(CC(=O)Nc2sc3c(c2C#N)CCC(C(C)(C)C)C3)CC1` (configuration not stated), for which the Potency was inactive: > 76.9 µM.

With `CN(C)CCNC(=O)c1coc(=O)c(Br)c1`, the Potency was inactive: > 76.9 µM.

Consider `Cc1ccc(Cn2cccc(NC(=O)c3ccco3)c2=O)cc1`, for which the Potency was inactive: > 76.9 µM.

Regarding `COc1ccc(N2CCN(C(=O)Cc3ccc(-n4c(=O)[nH]c5ccccc5c4=O)cc3)CC2)cc1`, the Potency was inactive: > 76.9 µM.

For the compound `Cc1nnc(N(CCC#N)CCC#N)s1`, the Potency was inactive: > 76.9 µM.

With `CCN(CC)c1ccc(NC(=O)c2cccc(C)c2OC)c(C)c1`, the Potency is inactive: > 76.9 µM.

For the compound `C=CCCC(=O)Nc1ccc(COC(=O)N2CCOCC2)cc1`, the Potency was inactive: > 76.9 µM.

As for `Cc1ccc(-n2ncc(C#N)c2/N=C/N(C)C)cc1`, the Potency was inactive: > 76.9 µM.

Turning to `COc1ccc(CNC(=O)CN(C(=O)CCC(=O)Nc2ccccn2)c2ccccc2OC)cc1`, the Potency was inactive: > 76.9 µM.

Regarding `COC(=O)CCCCCNc1ccc(C(=O)OC)cc1N`, the Potency is inactive: > 76.9 µM.

Take `Cc1ccc(NC(=O)Cn2nnc(C(=O)NCc3ccccc3)c2N)cc1C`: the Potency was inactive: > 76.9 µM.

Turning to `COc1ccc(S(=O)(=O)Nc2c(C)n(C)n(-c3ccccc3)c2=O)cc1`, the Potency is inactive: > 76.9 µM.

`O=S1(=O)C=C(Oc2ccc(F)cc2)c2ccccc21`: the Potency is inactive: > 76.9 µM.

In the case of `COc1ccc(CCNC(=O)CN(c2ccccc2OC)S(C)(=O)=O)cc1`, the Potency is inactive: > 76.9 µM.

On to `O=C1CCCc2c1nc(-c1ccccc1)n2O`, for which the Potency is inactive: > 76.9 µM.

Regarding `Cc1cc(C)cc(OCC(=O)N(Cc2cccs2)C2CCS(=O)(=O)C2)c1` (configuration not stated), the Potency is inactive: > 76.9 µM.

In the case of `COc1ccc(-n2c(C)cc(=O)c3c2CC(C)(C)CC3=O)cc1`, the Potency was inactive: > 76.9 µM.

`CCCCOC(=O)n1c(SCC(=O)N(CC)CC)nc2ccccc21`: the Potency is inactive: > 76.9 µM.

As to `CCOC(=O)CNC(=O)Nc1nnc(-c2ccc(OCC)cc2)o1`, the Potency is inactive: > 76.9 µM.

With `CCOC(=O)NC(=O)CN1C(=O)NC(C)(c2ccccc2)C1=O` (configuration not stated), the Potency was inactive: > 76.9 µM.

As to `O=C(Nc1ccc(OC(F)(F)F)cc1)C1CCCN(S(=O)(=O)c2cccnc2)C1` (configuration not stated), the Potency is inactive: > 76.9 µM.

Consider `COc1ccc(Cn2c(=O)[nH]c3cc(C(=O)NCc4ccc5c(c4)OCO5)ccc3c2=O)cc1`, for which the Potency was inactive: > 76.9 µM.

As for `COc1ccc(OC)c(-c2csc(N(Cc3ccco3)C(=O)c3cccs3)n2)c1`, the Potency is inactive: > 76.9 µM.

`COc1cccc(-n2c(C)nnc2SCC(=O)Nc2ccccc2N2CCOCC2)c1`: the Potency was inactive: > 76.9 µM.

On to `O=C(c1ccc(CS(=O)(=O)Cc2ccc(Cl)cc2)o1)N1CCCC1`, for which the Potency is inactive: > 76.9 µM.

As to `O=C(c1ccc(N2CN(C(=O)c3ccco3)c3nc4ccccc4nc32)cc1)N1CCOCC1`, the Potency was inactive: > 76.9 µM.

For the compound `O=C1NC(c2ccncc2)Nc2ccccc21` (configuration not stated), the Potency is inactive: > 76.9 µM.

As to `COc1ccc(-c2cc(C(F)(F)F)n3nc(C(=O)Nc4cc(C)on4)cc3n2)cc1OC`, the Potency was inactive: > 76.9 µM.

Turning to `CCc1nnc2sc(-c3ccc(NC(=O)CSc4ccc(Cl)cc4)cc3)nn12`, the Potency was inactive: > 76.9 µM.

As to `Cc1nc2ccccc2c(=O)n1NCc1cccs1`, the Potency is inactive: > 76.9 µM.

Turning to `Cc1cc(/C(=N/O)C(C)(C)NO)ccc1Cl`, the Potency was inactive: > 76.9 µM.

On to `Cc1ccc(CNC(=O)CCS(=O)(=O)c2cc(Br)cc3c2N(C(=O)C2CC2)CC3)o1`, for which the Potency is inactive: > 76.9 µM.

For the compound `O=C(CN1C(=O)c2ccccc2S1(=O)=O)NCc1cccnc1`, the Potency is inactive: > 76.9 µM.

For `c1cncc(-c2nc(-c3ccc4c(c3)OCO4)cs2)c1`, the Potency was inactive: > 76.9 µM.

Take `O=C(CSc1n[nH]c(-c2cccs2)n1)N1CCN(S(=O)(=O)c2ccccc2)CC1`: the Potency result was “inactive”.

On to `CC1(CC(=O)O)SC(=O)NC1=O` (configuration not stated), for which the Potency is inactive: > 76.9 µM.

For the compound `CC1Cc2ccccc2N1S(=O)(=O)c1cccc(C(=O)c2nccn2C)c1` (configuration not stated), the Potency was inactive: > 76.9 µM.

Turning to `CCc1nc(-c2cc3ccc(C)cc3[nH]c2=O)no1`, the Potency was inactive: > 76.9 µM.

With `Cc1sc2nc3ccc(N4CCCCC4)nn3c(=O)c2c1C`, the Potency is inactive: > 76.9 µM.

For `O=C(COC(=O)c1ccc(S(=O)(=O)N2CCOCC2)cc1)NC1CCCC1`, the Potency was inactive: > 76.9 µM.

With `Cc1nc2ccc(S(=O)(=O)NCC(=O)NCCN3CCCCC3C)cc2s1` (configuration not stated), the Potency is inactive: > 76.9 µM.

In the case of `O=C(Nc1cc(=O)c2ccccc2o1)N1CCCCC1`, the Potency is inactive: > 76.9 µM.

With `C=C(C)Cn1c(NCCOC)nc2c1c(=O)[nH]c(=O)n2C`, the Potency is inactive: > 76.9 µM.

As to `Cc1c(C(=O)NCCc2ccccc2)oc2ccc(S(=O)(=O)N3CCC4(CC3)OCCO4)cc12`, the Potency was inactive: > 76.9 µM.

With `O=C1N=C(N2CCOCC2)CS1`, the Potency is inactive: > 76.9 µM.

On to `Cc1cc(CC(C)C)n(-c2nc3ccccc3c(=O)n2OCC(N)=O)n1`, for which the Potency is inactive: > 76.9 µM.

On to `CN(C)CCNC(=O)Cn1nc(C(F)F)cc1C1CC1`, for which the Potency was inactive: > 76.9 µM.

`CCOCCCNC(=O)C1CCCCN1S(=O)(=O)c1ccc(F)cc1` (configuration not stated): the Potency is inactive: > 76.9 µM.

`O=C(CSc1nnc2sc3ccccc3n12)c1ccco1`: the Potency is inactive: > 76.9 µM.

As for `Cc1ccc2oc(-c3ccc(NC(=O)c4ccc5c(c4)OCO5)cc3)nc2c1`, the Potency is inactive: > 76.9 µM.

For `O=C(c1ccc(C(F)(F)F)cc1)N1CCCCC1`, the Potency was inactive: > 76.9 µM.

With `COc1cc(C2N(c3ccc(Cl)c(Cl)c3)C(=O)C3CCCN32)cc(OC)c1OC` (configuration not stated), the Potency was inactive: > 76.9 µM.

As for `CSc1nnc2c3cc(F)ccc3n(Cc3ccccc3)c2n1`, the Potency is inactive: > 76.9 µM.
